Data taken from PubChem BioAssay AID445 (National Center for Advancing Translational Sciences (NCATS), 2006).
The campaign covered roughly 110,000 compounds. About 40 (0.04%) were called active. Inconclusive results, whose numbers are uncertain, are shown with a selection of clear calls. The call rests on the fitted dose curve; in most records, active means well fitted curve in the direction sought with a large enough effect in the signal ratio (not every such curve was filed as active); inconclusive means small, poorly fitted or top-dose-only effect, or a change in a side signal; inactive means flat fitted curve, though single readings scatter; the % refers to the signal ratio. Potencies of inconclusive entries are doubtful fits and often do not repeat.

Assay: IkB Signaling;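 on IkBa stabilization activation: 0% = basal untreated cells and 100% = reference inhibitor full response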
Conditions: ABC-DLBCL IkBa-CBG/CBR dual luciferase ratio (green luciferase fused to IkBa over red control in OCI-Ly3 lymphoma cells), 4 h; IkBa stabilization activation: at 57.1 µM (top of the series), scaled: untreated 0%, proteasome inhibitor 100% unless noted
Method in brief: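 Curves were fitted separately to fusion (green), unfused (red) and ratio luminescence, then classed by r2, magnitude and activity. Cells: OCI-Ly3, 4 h compound plus doxycycline at 37C; 10 uM MG-132 defined full response.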
Potency means the concentration at half of the fitted maximal effect.

| Structure (SMILES) | IkBa stabilization activation | Potency |
| --- | --- | --- |
| Cc1onc(-c2ccccc2)c1C(=O)Nc1nnc(COc2ccc(Cl)cc2)s1 | inconclusive: 2.9% [signal inhibitor] |  |
| COC(=O)c1cc2occc2n1CC(=O)Nc1cccc(SC)c1 | inactive: 1.04% |  |
| CC(C)(C)Cc1nc(-c2ccccn2)no1 |  | inconclusive: 6.31 µM [signal inhibitor, partial curve] |
| CCOC(=O)CSc1nc2sc(C(=O)O)c(C)c2c(=O)[nH]1 |  | inconclusive: 25.1 µM [signal inhibitor, partial curve] |
| COc1ccccc1NC(=O)CCC(=O)Nc1ccccc1OC |  | inconclusive: 25.1 µM [signal inhibitor, partial curve] |
| CCn1c(=N)c(C(=O)NCc2cccnc2)cc2c(=O)n3cc(C)ccc3nc21 | inactive: 1.15% |  |
| CCOc1ccc(-c2noc(-c3ccncc3)n2)cc1OCC | inactive: -2.88% |  |
| O=C1C=C(N2CCN(c3ccccn3)CC2)C(=O)c2c(O)ccc(O)c21 |  | active: 5.01 µM |
| O=C(Nn1c(Cc2cccs2)nc2ccccc2c1=O)c1cccs1 | inconclusive: 1.57% [signal inhibitor] |  |
| OC(COc1ccc(Br)cc1)CN1CCOCC1 (stereo not given) | inactive: -0.996% |  |
| COc1ccc(-c2nc(CSCC(=O)NCCc3ccc(C)cc3)c(C)o2)cc1OC | inconclusive: 2.07% [signal inhibitor] |  |
| CCc1noc2nc(C)n(CC(=O)O)c(=O)c12 | inactive: 2.88% |  |
| Cc1c(C(=O)NCc2ccc(Cl)cc2)sc2nc3n(c(=O)c12)CCCC3 | inconclusive: 4.76% [signal inhibitor] |  |
| CCOc1ccc(CNC(=O)c2ccc(NC(=O)c3nsc4ccccc34)cc2)cc1 |  | inconclusive: 3.16 µM [signal inhibitor, full curve] |
| CC1(C)CC(=O)C2=C(C1)NC(SCC(=O)Nc1ccccc1)=C(C#N)C21CCCCC1 | inconclusive: 12.3% [signal inhibitor] |  |
| CCC(Cc1ccccc1)NC(=O)c1oc(=O)c2ccccc2c1-c1ccccc1 (stereo not given) | inconclusive: -0.836% [signal inhibitor] |  |
| COC(=O)c1ccccc1NC(=O)c1noc2c1CSc1ccccc1-2 | inactive: 4.66% |  |
| Cc1cccc(C)c1OCCCCn1c(C2CC(=O)N(c3ccc(F)cc3)C2)nc2ccccc21 (stereo not given) | inconclusive: 1.55% [signal inhibitor] |  |
| Cc1cc(NC(c2nnc(-c3ccccc3)o2)c2ccccc2F)ccc1Br (stereo not given) | inconclusive: 6.02% [signal inhibitor] |  |
| Cc1sc2nc(SCC(=O)N(CCO)CCO)n(C3CCCCC3)c(=O)c2c1C | inactive: 4.14% |  |
| COc1cc(C)c(C(C)C)cc1S(=O)(=O)N1CCN(C)CC1 | inactive: -1.53% |  |
| CCN1C(=O)c2cccc3c(S(=O)(=O)Nc4ccc(O)c(C(=O)O)c4)ccc1c23 | inconclusive: 2.21% [signal inhibitor] |  |
| CCOc1ccccc1C(=O)N(Cc1ccc(N(C)C)cc1)CC1CCCO1 (stereo not given) | inconclusive: 0.062% [signal inhibitor] |  |
| CC(C)(C)OC(=O)N1CCC(c2c(C(=O)N3CCc4ccccc4C3)cnn2-c2ccc(Cl)cc2)CC1 | inconclusive: -0.546% [signal inhibitor] |  |

| Structure (SMILES) | IkBa stabilization activation | Potency |
| --- | --- | --- |
| CCS(=O)(=O)Nc1cc(-c2cn3ccc(C)cc3n2)ccc1C | inactive: -0.97% |  |
| O=C(O)c1c(F)c(F)c(F)c(F)c1-c1ccc(Cl)cc1 |  | inconclusive: 25.1 µM [signal inhibitor, partial curve] |
| COc1cccc(Cn2c(=O)c(C)nc3cnc(Nc4cccc(OC)c4)nc32)c1 | inactive: -4.13% [at 11.4 µM, scaled: untreated 0%, proteasome inhibitor 100%] |  |
| c1csc(CNc2nc(-c3ccc4c(c3)OCO4)nc3ccccc23)c1 | inactive: 1.41% [at 11.4 µM, scaled: untreated 0%, proteasome inhibitor 100%] |  |
| Nc1nc2c(nc(Br)n2[C@@H]2O[C@H]3COP(=O)(O)O[C@@H]3[C@H]2O)c(=O)[nH]1 | inactive: 7.57% |  |
| Cc1cc(C)cc(C(=O)N2CC(=O)Nc3ccc(C)cc3C2c2ccccc2)c1 (stereo not given) | inconclusive: -0.0793% [signal inhibitor] |  |
| Cc1cccc(-n2c(=O)c3c(c4cc(C)ccc4n3C)n(CC(=O)Nc3ccccc3C(F)(F)F)c2=O)c1 | inactive: 4.15% |  |
| c1ccc(C(c2cccs2)c2c[nH]c3ccccc23)cc1 (stereo not given) | inconclusive: 0.48% [signal inhibitor] |  |
| Cc1cccc(Cn2c(=O)n(Cc3ccco3)c(=O)c3ccccc32)c1 | inconclusive: 5.68% [signal inhibitor] |  |
| Cc1ccccc1OCC(O)Cn1c(=N)n(CCN2CCOCC2)c2ccccc21 (stereo not given) | inactive: 0.197% |  |
| Cc1ccc(-c2noc(CN(C3CCCCC3)S(=O)(=O)c3ccc(Cl)cc3)n2)cc1 | inconclusive: -3.04% [signal inhibitor] |  |
| CN(C)CCCNc1cc(O)c2c(c1O)C(=O)c1ccccc1C2=O | inactive: -2.48% [at 11.4 µM, scaled: untreated 0%, proteasome inhibitor 100%] |  |
| COc1ccc(-c2nc3n(n2)C(c2ccccc2F)C(C(=O)Nc2cccnc2)=C(C)N3)cc1OC (stereo not given) | inconclusive: 0.821% [signal inhibitor] |  |
| Oc1ccc(Cl)cc1Sc1cc(Cl)ccc1O | inconclusive: -6.04% [signal inhibitor] |  |
| O=C(Nc1ccc(F)c(Cl)c1)N1CCN2CCCCC2C1 (stereo not given) | inconclusive: 9.78% [signal inhibitor] |  |
| O=S(=O)(Nc1cccc2cn[nH]c12)c1ccc(F)cc1 | inactive: 0.0762% |  |
| CCS(=O)(=O)N1Cc2ccccc2CC1C(=O)Nc1nc2ccccc2[nH]1 (stereo not given) |  | inconclusive: 0.251 µM [signal inhibitor, full curve] |
| COC(=O)c1ccccc1NC(=O)c1ccc(-c2ccccc2F)o1 |  | inconclusive: 0.0251 µM [signal inhibitor, full curve] |
| COc1ccccc1C(=O)Nc1ccc2nc(N3CCC(C)CC3)cc(C)c2c1 | inconclusive: -1.06% [signal inhibitor] |  |
| Cc1ccc(C(=O)Nc2ccc(Br)cc2)cc1S(=O)(=O)N1CCOCC1 | inactive: -2.45% |  |
| CCn1c(=O)c2cc(C(=O)N(CCCOC(C)C)Cc3ccco3)sc2c2ccccc21 | inconclusive: 2.1% [signal inhibitor] |  |
| O=C(c1cc2c(s1)-c1ccccc1OC2)N1CCN(c2ccccn2)CC1 | inconclusive: 8.36% [signal inhibitor] |  |
| Cc1ccc(-c2sc(C(=O)Nc3ccc(Br)cc3)cc2CC(=O)O)cc1 | inconclusive: 8.06% [signal inhibitor] |  |
| Cc1ccc2c(c1)c1c(n2C)C(C(N)=O)CCC1 (stereo not given) | inactive: -1.11% |  |

| Structure (SMILES) | IkBa stabilization activation | Potency |
| --- | --- | --- |
| Oc1ccc(Cc2nccc3cc(O)c(O)cc23)cc1O | inactive: 1.13% [at 11.4 µM, scaled: untreated 0%, proteasome inhibitor 100%] |  |
| Cc1cc(C)c(NC(=O)Cn2c(SCC(=O)NCc3ccccc3)nc3ccccc32)c(C)c1 | inactive: -0.55% |  |
| O=C1Nc2ccccc2C12Nc1ccccc1-c1nc3ccccc3n12 (stereo not given) | inconclusive: -0.817% [signal inhibitor] |  |
| Nc1c(C(=O)Nc2ccccc2Cl)c2ccccn2c1C(=O)c1ccc(Cl)cc1 | inconclusive: 0.872% [signal inhibitor] |  |
| COc1ccccc1-n1cnc2cc(C(=O)NCc3ccco3)ccc21 |  | inconclusive: 31.6 µM [rising, partial curve] |
| CC(C)CC(OC(=O)c1cccs1)C(=O)NCC1CCCO1 (stereo not given) | inactive: 0.386% |  |
| CC(C)C[C@@H](N)C(=O)Nc1ccc2ccccc2c1 | inactive: 0.642% [at 11.4 µM, scaled: untreated 0%, proteasome inhibitor 100%] |  |
| COc1ccc(NS(=O)(=O)c2ccc3c(c2)C(C(C)C)C(=O)N3)cc1 (stereo not given) | inconclusive: 3.52% [signal inhibitor] |  |
| CCn1c(C)c(C2N3CC4(C)CN2CC(CC)(C3)C4=O)c2ccccc21 (stereo not given) | inconclusive: 0.212% [signal inhibitor] |  |
| CCc1nn(CC(=O)NCCC(C)C)c(=O)c2cc3occc3n12 | inactive: 0.682% |  |
| C[C@@]12CC[C@@H]3[C@H](CCC4=CC(=O)CC[C@]43C)[C@@H]1CC[C@@H]2C(=O)Cn1cnc2c(=S)nc[nH]c21 | inactive: 2.03% [at 11.4 µM, scaled: untreated 0%, proteasome inhibitor 100%] |  |
| CC(=O)N1CCC2(CC1)CN(C(c1ccccc1)c1ccccc1)C2 | inactive: 2.51% [at 11.4 µM, scaled: untreated 0%, proteasome inhibitor 100%] |  |
| C1CCCC1 | inactive: -0.955% |  |
| CCCN(CCC)c1nc(C)cc(C(C#N)c2nc3ccccc3o2)n1 (stereo not given) | inactive: 0.111% |  |
| COc1ccc(Nc2ncnc3c2cnn3-c2ccc(C)cc2C)cc1 | inconclusive: 0.892% [signal inhibitor] |  |
| Cc1nc2nc(COc3ccccc3)[nH]n2c(=O)c1Cc1ccccc1 |  | inconclusive: 10 µM [signal inhibitor, partial curve] |
| Cc1c(C(=O)N(C)Cc2ccccc2)oc2ccc(S(=O)(=O)N3CCCC3)cc12 | inconclusive: 3.2% [signal inhibitor] |  |
| COc1cccc(CC(=O)Nc2ccc3nc(N4CCC(C)CC4)cc(C)c3c2)c1 | inactive: -4.71% |  |
| Cc1cc(NS(=O)(=O)c2ccc3nc(-c4ccccc4)[nH]c3c2)ccc1Br | inconclusive: -7.14% [signal inhibitor] |  |
| CC(C)C(=O)Nc1ccc2nc(SCC(=O)N3CCOCC3)sc2c1 | inactive: -0.0571% |  |
| COc1ccccc1-c1noc(CSc2nnc(Cc3ccccc3)n2-c2ccc(C)c(C)c2)n1 | inconclusive: -2.59% [signal inhibitor] |  |
| Cc1ccc(N2CC(c3nnc(NC(=O)c4ccco4)s3)CC2=O)cc1Cl (stereo not given) | inconclusive: 0.793% [signal inhibitor] |  |
